The values that follow come from PMC5836133.

This is one part of the list. At the low end of the ranking, values are background and their order means little.

This assay has as its system T1, GST-NbGlk1(82-244).
T1 sequence: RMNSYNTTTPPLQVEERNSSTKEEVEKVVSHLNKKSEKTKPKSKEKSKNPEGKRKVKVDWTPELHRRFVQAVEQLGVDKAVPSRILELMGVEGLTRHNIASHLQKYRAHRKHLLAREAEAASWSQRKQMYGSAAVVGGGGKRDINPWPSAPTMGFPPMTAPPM
The experiment in a line: protein-binding microarray.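 Further: rank-based score ranging −0.5 to +0.5 with E above 0.45 taken as significant binding.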 Particulars: NbGlk1 is a Golden2-like transcription factor of Nicotiana benthamiana; high values mean tight binding; most listed sequences are background and not binding sites; double strand, one strand shown.
ACGGTTCC had a binding signal of -0.278 E-score. Turning to ACTTGAGA, the binding signal is -0.00419 E-score. Sequence ACGTCCCT registered a binding signal of -0.135 E-score.

Sequence AAATCCGT yielded a binding signal of 0.401 E-score. ATTGCGCG came in with a binding signal of 0.378 E-score. As for ATTCAAGA, the binding signal is 0.0101 E-score.

AGAACCCT gave a binding signal of -0.266 E-score.

The sequence ATAGCACA registered a binding signal of -0.0338 E-score. CACTACCG yielded a binding signal of -0.0977 E-score.

In the case of ATTTTGAC, the binding signal amounted to 0.177 E-score. Sequence CAGCCCCA registered a binding signal of -0.214 E-score. ATGGCTAG had a binding signal of -0.0572 E-score. AGATGTCC yielded a binding signal of -0.0552 E-score. ACCGGACT returned a binding signal of -0.219 E-score. CAAATTAA registered a binding signal of -0.0733 E-score.

For the sequence ACTCCTCC, the binding signal is -0.192 E-score. The sequence ACTAGCCC gave a binding signal of -0.2 E-score. For AACCTCAT, the binding signal was -0.145 E-score. For the sequence ACACGAGA, the binding signal came out at 0.225 E-score.

Take ATGCGCTG: the binding signal was -0.00802 E-score. Regarding ACGGTTTG, the binding signal is -0.167 E-score. In the case of ATGCCGAG, the binding signal is -0.105 E-score. The same measure for ACCGTACG: -0.0886 E-score; for AACACTAG: -0.0921 E-score.

In turn, ACATCCGG gave a binding signal of 0.118 E-score. AGGGTAGG had a binding signal of -0.188 E-score.

AGCATCTA: the binding signal amounted to 0.161 E-score.

In turn, AGAGCCGA came in with a binding signal of -0.174 E-score. With ACCCCGGC, the binding signal is -0.22 E-score.

In the case of CACTCAAC, the binding signal was -0.029 E-score. For AGAGCTTA the value was -0.177 E-score; for ACAGCGTA, -0.0646 E-score.

For ACAAAGCT, the binding signal was -0.125 E-score. ATCTACAG yielded a binding signal of 0.259 E-score. For AAAACGGA the value was 0.0281 E-score; for CAAAGGCG, -0.229 E-score. Sequence ATTTACCG registered a binding signal of 0.076 E-score. AAAAACAG yielded a binding signal of 0.00523 E-score. Sequence ACCCTTAA came in with a binding signal of -0.158 E-score. For CAACTCGG the value was -0.0632 E-score; for ACATGGAT, 0.276 E-score. With AGACGAAG, the binding signal is -0.0932 E-score. The sequence AGTGAGGG gave a binding signal of -0.113 E-score. The sequence ATACTTGC registered a binding signal of 0.177 E-score. As for ACCCCCTC, the binding signal is -0.236 E-score.

On to AGCGGGCA, for which the binding signal was -0.192 E-score. The sequence ACGGTCGC displayed a binding signal of -0.222 E-score. In turn, ATTCGTAG registered a binding signal of 0.112 E-score. In the case of AGACCAAA, the binding signal is -0.0264 E-score. Turning to ACGATTAC, the binding signal was 0.407 E-score. For the sequence CAATGGGC, the binding signal was -0.343 E-score. The sequence ATACGCCA yielded a binding signal of 0.0884 E-score. The sequence CACGTCCA displayed a binding signal of -0.0315 E-score. For CAGCCGGC the value was -0.393 E-score; for CACTGCGA, 0.0317 E-score; for AACGCATT, -0.0271 E-score. Consider ATCTCGAG, for which the binding signal is 0.292 E-score.

Turning to AGAGGGTC, the binding signal is -0.356 E-score.

In turn, AGATAAAC gave a binding signal of -0.12 E-score.

As to ACCGCTTG, the binding signal was -0.103 E-score. For AGGAGCGG the value was -0.181 E-score; for AGCTACTA, -0.131 E-score.

In turn, ACAAGCCC registered a binding signal of -0.223 E-score. The same measure for CAAACGAC: 0.0302 E-score; for AACCCAAG: -0.0536 E-score. In turn, AAAGAATT showed a binding signal of 0.139 E-score. For AACCGAGT the value was -0.169 E-score; for AGAGGTTG, -0.0687 E-score; for AATAATTG, 0.0255 E-score. The same measure for ACACACGG: -0.167 E-score.

AAGTACAC came in with a binding signal of -0.171 E-score. AATCGGCC came in with a binding signal of 0.152 E-score. In the case of CAAACCAC, the binding signal was -0.0426 E-score. Sequence AAGATAGT yielded a binding signal of -0.00179 E-score. Take ATCAGTAG: the binding signal is 0.0779 E-score.

With AATACGAA, the binding signal turned out to be 0.205 E-score. The same measure for ATACGACC: -0.00634 E-score; for AGCCGAGG: -0.191 E-score; for AGATTGCA: 0.464 E-score. AGGGAAGC had a binding signal of -0.108 E-score. Take AAGGTAAA: the binding signal turned out to be 0.11 E-score.

Turning to AGGAAAGC, the binding signal is -0.0988 E-score.

Sequence ACTTGGAT came in with a binding signal of 0.263 E-score. As to CAACCATG, the binding signal was -0.171 E-score. AATTTAAT yielded a binding signal of 0.157 E-score. In turn, CAAAGGGC yielded a binding signal of -0.278 E-score. Regarding ATAGGCGA, the binding signal was determined as 0.0466 E-score. ACCAAGAG registered a binding signal of -0.142 E-score.

The sequence ATCCAGTC had a binding signal of 0.089 E-score. In turn, AAAGAAAT came in with a binding signal of 0.26 E-score. ATTACTAA yielded a binding signal of 0.141 E-score.

For the sequence CAACTGTG, the binding signal is -0.144 E-score.

On to ACGCCTCA, for which the binding signal was -0.109 E-score.

ATAGCCGG had a binding signal of -0.221 E-score.

With ATATCACG, the binding signal worked out at 0.347 E-score. For AGGAGAGA the value was -0.0212 E-score. In turn, ACTGTTCT had a binding signal of -0.0658 E-score. Sequence ACCCCACT came in with a binding signal of -0.155 E-score.

As to ATTTGAGC, the binding signal amounted to 0.0875 E-score. In turn, ATACTCTA registered a binding signal of 0.228 E-score. For the sequence ACAGCTCC, the binding signal was -0.126 E-score. For AGCCCCGG, the binding signal is -0.301 E-score. For the sequence AGGCTTAG, the binding signal is -0.0742 E-score. For the sequence ATCAGCCC, the binding signal was 0.0363 E-score. On to ATTCATGA, for which the binding signal was 0.0306 E-score.

ACGGATTC had a binding signal of 0.405 E-score. Take AGAACACC: the binding signal was -0.237 E-score. The sequence ACACCGGT showed a binding signal of -0.133 E-score. Regarding AGTCACAA, the binding signal is -0.0197 E-score. As to CAACCTAA, the binding signal was -0.0796 E-score. ATCGCAAA came in with a binding signal of 0.234 E-score. The same measure for AGCAATTC: 0.094 E-score. As to ATAGCTCC, the binding signal was -0.229 E-score. The same measure for AGCTCTAA: -0.115 E-score; for CAATTCGC: 0.0698 E-score. Sequence ACGATGGG showed a binding signal of 0.0351 E-score. The same measure for ATCTGTTC: 0.214 E-score. For ACCAACTA the value was -0.0676 E-score; for AGTTCGGG, -0.164 E-score. For AGAGCTCT the value was -0.229 E-score; for ATATCAAC, 0.287 E-score. As for AATAGCCC, the binding signal was -0.0536 E-score. Take ATGAGGAA: the binding signal is -0.0357 E-score.

On to ACATTGCG, for which the binding signal came to 0.0274 E-score. The same measure for CAATCGGG: 0.14 E-score. AGTCCGAT yielded a binding signal of -0.0133 E-score. As to AGAAAGCC, the binding signal is -0.187 E-score. Consider ACTAGACG, for which the binding signal is -0.154 E-score.

As for AACATTGC, the binding signal was 0.0366 E-score. AGATGATA showed a binding signal of 0.182 E-score. As to CACAAAAC, the binding signal was determined as 0.0651 E-score. As to AGCCGAAC, the binding signal was -0.14 E-score. ACGGTTGC had a binding signal of -0.0495 E-score.

Regarding AGCTATTG, the binding signal was -0.077 E-score.

Regarding ACGTCGAG, the binding signal is -0.0697 E-score.

Sequence ATGGTTCC yielded a binding signal of -0.0286 E-score.

Take AGCCTTAT: the binding signal was -0.0399 E-score. In the case of AACTGAAC, the binding signal was -0.0586 E-score. For AATCCAGG, the binding signal stood at 0.415 E-score.

The sequence ATACACAC returned a binding signal of -0.00856 E-score.

As for ATGTTATC, the binding signal amounted to 0.115 E-score.

For AAAGGCCG, the binding signal was -0.249 E-score. AGGTCGGG came in with a binding signal of -0.24 E-score.

AGTCGTGA: the binding signal is -0.0787 E-score. In turn, ATGCTGGG came in with a binding signal of -0.169 E-score. For AGTATCCC the value was 0.0888 E-score; for AAGATACT, 0.283 E-score. As for AGGGTCCC, the binding signal is -0.271 E-score. ATCTATGG gave a binding signal of 0.205 E-score. The sequence ACACGCAC yielded a binding signal of -0.0788 E-score.

In the case of CAACGAGA, the binding signal is 0.138 E-score. With AGTGGTAC, the binding signal is -0.127 E-score. The same measure for AGTCCGTA: -0.0531 E-score; for AGATAAAA: 0.123 E-score; for AGATTAGC: 0.0843 E-score.

As to ATACCGCC, the binding signal was 0.0728 E-score. AGGCGCAC showed a binding signal of -0.21 E-score. As for ACCACGGC, the binding signal was -0.295 E-score. For ATCTATTC, the binding signal was 0.283 E-score. For AGTCTGGC, the binding signal is -0.278 E-score. The same measure for ACACATGA: 0.0829 E-score. Take CACCCTGG: the binding signal was -0.209 E-score.

AGAGTGCC showed a binding signal of -0.209 E-score. AGTAGGGC: the binding signal was -0.253 E-score.

Regarding CACACTCA, the binding signal came to 0.0601 E-score. As to ATAGGACA, the binding signal is -0.0762 E-score. For ACTGGGGC, the binding signal is -0.157 E-score. In turn, ATAGCCAC registered a binding signal of 5.52e-05 E-score. As to AGGTGTAT, the binding signal worked out at 0.069 E-score. AGTTCGAG gave a binding signal of 0.041 E-score. AGCCCTCC came in with a binding signal of -0.313 E-score.

As for ATAGATGA, the binding signal was found to be 0.057 E-score.
